PubChem BioAssay AID2546 (National Center for Advancing Translational Sciences (NCATS), 2010)
Screen size: about 310,000 compounds; about 11,000 (3.5%) were called active. The inconclusive results got no clear call from the source; some entries with a clear call stand among them for comparison. The call rests on the fitted dose curve; in most records, active means well fitted inhibition curve with a large enough effect; inconclusive means small, poorly fitted or top-dose-only effect, or effect the other way; inactive means flat fitted curve, though single readings scatter. Potencies of inconclusive entries are left out as doubtful fits.

Assay: VP16 counterscreen qHTS for inhibitors of ROR gamma transcriptional activity;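 further: Gal4-VP16 expression switched on by copper sulfate through the metallothionein promoter; nearly all actives have a fitted effect of over 50% in size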
Details: Drosophila S2 Gal4-VP16 UAS-luciferase, luminescence, 20 h; series mostly up to 53.6 µM
Potency means the concentration at half of the fitted maximal effect; tags describe the fitted curve by direction and shape.

SMILES	Potency
CCN(CC)C(=S)SC1CCCCN(C(=O)c2ccc(F)cc2)C1=O (stereo not drawn)	inactive
CCN(CC)S(=O)(=O)c1ccc(C(=O)NNc2nc(-c3ccccc3)c3cc(Br)ccc3n2)cc1	inconclusive [inhibitor, partial curve]
C/C(Cn1cnc([N+](=O)[O-])n1)=N/NC(=O)COc1ccccc1Cl	inconclusive [activator, single point]
Clc1ccc2nc(N3CCCCC3)sc2c1	inconclusive [activator, full curve, poor fit]
O=S(=O)(NCCc1ccccn1)c1ccc(OC(F)(F)F)cc1	inactive
CCOC(=O)/C=C/c1cnn(-c2ccccc2)c1	inconclusive [inhibitor, single point]
CCN(CCO)C(=O)c1ccc2nc(Cc3cccc(Cl)c3)oc2c1	inactive
Cc1cccc(-n2nc(C(=O)c3ccco3)cc(-c3nc4ccccc4[nH]3)c2=N)c1	active: 5.01 µM
Cc1ccc(N2CN(Cc3ccco3)CNC2=S)cc1	inconclusive [inhibitor, single point]
C=CCC(=O)N1CCC(n2nccc2NC(=O)CCOc2ccccc2)CC1	inconclusive [activator, single point]
Cc1ccc(NC(=O)Cc2cccs2)cc1Cl	inconclusive [activator, single point]
O=C(Cc1ccc(Cl)cc1)Nc1nc2ccccc2[nH]1	active: 7.08 µM
C/C(=N\NC(=O)c1ccc(O)cc1)c1cc2ccccc2o1	active: 10 µM
CCOC(=O)CCc1c(C)c2ccc(OC(C)C(=O)OCC)c(C)c2oc1=O (stereo not drawn)	inconclusive [inhibitor, single point]
CSc1cccc(NC(=S)N(CCC(C)C)C2CCN(C(C)C)CC2)c1	inconclusive [inhibitor, single point]
O=c1c2ccccc2sn1-c1cc(S(=O)(=O)N2CCOCC2)ccc1N1CCOCC1	inconclusive [inhibitor, single point]
COc1ccc(C(=O)NC(=S)NNC(=O)c2ccc(NC(=O)C(C)C)cc2)cc1	active: 15.8 µM
CCOC(=O)c1cc2[nH]c3ccccc3c2[n+](-c2ccc([N+](=O)[O-])cc2)c1N	inconclusive [activator, single point]
Cc1ccsc1C(=O)N1CCC(CO)(Cc2ccccc2)CC1	inconclusive [inhibitor, single point]

SMILES	Potency
O=C(CCN1C(=O)/C(=C/c2ccccc2)SC1=S)NC1CCS(=O)(=O)C1 (stereo not drawn)	inconclusive [inhibitor, single point]
O=C(CCCl)Nc1nnc(SCC(=O)NC2CCCC2)s1	active: 2 µM
O=C1/C(=C/C=C/c2ccccc2)Oc2c1ccc(O)c2CN1CCN(CCO)CC1	inactive
O=C1NC(=O)/C(=C/c2ccccc2OCc2ccccc2)S1	inconclusive [inhibitor, single point]
Cc1coc(C)c1C(=O)CC1(O)C(=O)N(Cc2ccccc2)c2ccccc21 (stereo not drawn)	inconclusive [inhibitor, single point]
O=C(Nc1nc2ccccc2[nH]1)Nc1ccccc1F	inconclusive [inhibitor, partial curve, poor fit]
Cc1ccc(-c2csc3nc4c5ccccc5c(NCCCN(C)C)nn4c(=O)c23)cc1	inconclusive [inhibitor, single point]
O=C(NCCc1ccccc1)C1CCC(=O)N(Cc2ccc(Cl)cc2)C1 (stereo not drawn)	inactive
O=C(/C=C/c1ccccc1)c1ccccc1	inactive
COc1ccc(N(C)S(=O)(=O)c2cccc(C(=O)Nc3nc4ccccc4[nH]3)c2)cc1	active: 11.2 µM
CCOc1ccc(CCNC(=O)Cc2ccc(NC(=O)C3=C(C)OCCS3)cc2)cc1	inactive
CS(=O)(=O)c1ccc(S(=O)CC(=O)OCc2ccccc2)c([N+](=O)[O-])c1 (stereo not drawn)	active: 4.47 µM
Cc1nnc2n(C3CCCCC3)c(=O)c3c4c(sc3n12)CCC4	inactive
O=C(NNC(=S)Nc1ccccc1C(F)(F)F)c1cccnc1	inactive
O=C(Nc1ccc(Cl)cn1)C1CCN(c2ncnc3c2nc2n3CCCCC2)CC1	inconclusive [inhibitor, single point]
COc1ccc2nc(NC(=O)c3ccccc3F)sc2c1	inconclusive [inhibitor, partial curve]
CCOC(=O)C1=C(c2ccccc2)NC(=S)NC1c1ccc(C)c([N+](=O)[O-])c1 (stereo not drawn)	active: 11.2 µM
COc1ccccc1/C=N/NC(=S)Nc1cccnc1	inconclusive [inhibitor, single point]
CC(=O)N1CCCc2cc(S(=O)(=O)N(C)Cc3ccccc3)ccc21	inconclusive [inhibitor, single point]
